From the supplement of paper PMC6531468
Some of the results follow. Values come from read counts of a selection and are noisy. Scores sum up all selected molecules that hold the word; the word was not tested alone.

Experiments:
Test in all cases: 6-mer SELEX enrichment z-score vs GST control; IMP3 is the RNA-binding protein IGF2BP3; higher = more enriched by binding
IMP3 KH1-4 = conditions: construct: KH1-4 (164-579); SELEX round: R4
Procedure: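 SELEX-seq with GST-tagged IMP3 KH1-4 (Pro164-Lys579) and an N40 RNA pool, round 4. 6-mer z-score of sequence-tag enrichment normalised to the corresponding GST SELEX round; RNA k-mers written as DNA (T for U).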

IMP3 KH1-2 = conditions: construct: KH1-2 (164-376); SELEX round: R4
Procedure: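 SELEX-seq with GST-tagged IMP3 KH1-2 (Pro164-Phe376) and an N40 RNA pool, round 4 (stringent 300/600 mM KCl washes). 6-mer z-score of sequence-tag enrichment normalised to the corresponding GST SELEX round; RNA k-mers written as DNA (T for U).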

IMP3 KH3-4 = conditions: construct: KH3-4 (377-579); SELEX round: R4
Procedure: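 SELEX-seq with GST-tagged IMP3 KH3-4 (Pro377-Lys579) and an N40 RNA pool, round 4. 6-mer z-score of sequence-tag enrichment normalised to the corresponding GST SELEX round; RNA k-mers written as DNA (T for U).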

IMP3 full-length = IMP3 full-length (UniProt O00425); conditions: construct: FL IMP3 (1-579); SELEX round: R4
Procedure: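 SELEX-seq with GST-tagged full-length IMP3 and an N40 RNA pool, round 4. Each 6-mer is scored as an enrichment z-score of sequence tags containing it, normalised to the matching GST SELEX round. RNA written as DNA (T = U).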

IMP3 RRM1-2 = conditions: construct: RRM1-2 (1-163); SELEX round: R2
Procedure: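 SELEX-seq with GST-tagged IMP3 RRM1-2 (Met1-Asn163) and an N40 RNA pool, round 2. 6-mer enrichment z-score normalised to GST SELEX. RNA written as DNA (T = U).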

Chain of IMP3 KH1-4 (chain, as listed by the source): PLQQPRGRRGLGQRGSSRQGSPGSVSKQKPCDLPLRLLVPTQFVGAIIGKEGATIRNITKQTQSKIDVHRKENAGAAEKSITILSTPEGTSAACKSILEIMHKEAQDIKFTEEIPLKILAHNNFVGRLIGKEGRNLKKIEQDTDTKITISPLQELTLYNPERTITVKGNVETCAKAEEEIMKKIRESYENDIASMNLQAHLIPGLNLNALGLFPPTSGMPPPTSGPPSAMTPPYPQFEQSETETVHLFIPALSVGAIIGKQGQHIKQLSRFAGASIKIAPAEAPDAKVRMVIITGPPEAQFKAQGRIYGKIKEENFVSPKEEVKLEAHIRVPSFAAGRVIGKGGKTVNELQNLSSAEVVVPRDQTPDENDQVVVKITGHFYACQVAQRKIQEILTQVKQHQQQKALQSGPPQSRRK
Chain of IMP3 KH3-4 (chain, as listed by the source): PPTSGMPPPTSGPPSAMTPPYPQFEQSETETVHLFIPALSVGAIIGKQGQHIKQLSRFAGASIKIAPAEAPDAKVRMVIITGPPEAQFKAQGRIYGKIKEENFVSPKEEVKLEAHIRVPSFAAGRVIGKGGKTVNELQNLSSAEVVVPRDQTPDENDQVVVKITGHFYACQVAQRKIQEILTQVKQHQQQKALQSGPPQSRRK
Chain of UniProt O00425 (O00425 whole entry): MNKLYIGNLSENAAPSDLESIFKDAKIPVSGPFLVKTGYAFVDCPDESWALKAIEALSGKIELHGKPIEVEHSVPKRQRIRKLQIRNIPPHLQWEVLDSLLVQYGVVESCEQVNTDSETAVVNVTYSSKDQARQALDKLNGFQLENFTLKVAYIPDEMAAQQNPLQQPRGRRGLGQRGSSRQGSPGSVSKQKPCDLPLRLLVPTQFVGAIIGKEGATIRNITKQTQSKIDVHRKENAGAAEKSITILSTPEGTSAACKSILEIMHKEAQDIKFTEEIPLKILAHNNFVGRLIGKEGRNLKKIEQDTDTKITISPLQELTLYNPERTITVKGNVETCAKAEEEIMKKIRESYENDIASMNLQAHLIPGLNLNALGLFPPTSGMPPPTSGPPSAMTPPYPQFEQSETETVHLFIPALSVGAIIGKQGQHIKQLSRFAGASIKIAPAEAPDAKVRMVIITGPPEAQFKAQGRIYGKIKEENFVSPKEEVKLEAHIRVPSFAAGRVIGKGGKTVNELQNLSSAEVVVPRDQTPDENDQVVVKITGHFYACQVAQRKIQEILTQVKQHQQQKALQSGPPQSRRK
Chain of IMP3 RRM1-2 (chain, as listed by the source): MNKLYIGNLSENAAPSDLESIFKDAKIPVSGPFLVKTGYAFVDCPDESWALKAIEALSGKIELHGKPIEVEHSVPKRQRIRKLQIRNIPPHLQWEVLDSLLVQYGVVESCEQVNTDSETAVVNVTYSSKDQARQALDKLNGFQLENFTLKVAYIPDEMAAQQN
Chain of IMP3 KH1-2 (chain, as listed by the source): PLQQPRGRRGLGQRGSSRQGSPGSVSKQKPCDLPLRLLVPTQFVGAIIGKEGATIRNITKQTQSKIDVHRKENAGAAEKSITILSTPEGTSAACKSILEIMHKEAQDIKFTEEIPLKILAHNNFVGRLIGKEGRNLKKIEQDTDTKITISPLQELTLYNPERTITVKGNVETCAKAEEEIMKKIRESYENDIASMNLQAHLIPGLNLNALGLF

| Sequence | 6-mer SELEX enrichment z-score (IMP3 KH1-4) | 6-mer SELEX enrichment z-score (IMP3 KH1-2) | 6-mer SELEX enrichment z-score (IMP3 KH3-4) | 6-mer SELEX enrichment z-score (IMP3 full-length) | 6-mer SELEX enrichment z-score (IMP3 RRM1-2) |
| --- | --- | --- | --- | --- | --- |
| TGTGTA | -0.18 | -0.26 | 0.019 |  |  |
| TTCAGC | -0.066 |  | -0.1 | 0.613 |  |
| TTGCGC | -0.441 | -0.417 |  |  |  |
| TGCAAA | -0.153 | -0.056 | -0.042 |  |  |
| TTCTCG | -0.481 | -0.317 | -0.264 |  |  |
| TTCACC |  | 0.372 | -0.275 | 0.097 | 0.426 |
| TACAGA |  | 1.22 | 1.04 | 0.692 | 0.227 |
| ACGTGA |  | -0.444 | -0.254 | -0.606 | -0.972 |
| GCGCTA |  | -0.355 | -0.206 | -0.019 | 0.092 |
| CCTGGG |  | -0.616 | -0.743 | -0.388 | -0.138 |
| CGACAA |  | -0.974 | -1.17 | -0.226 | -0.63 |
| AGCCCC |  | 0.348 | -0.996 | -0.421 | -0.944 |
| TCTCGG |  | -0.219 | -0.081 | 0.316 | 0.55 |
| CCATTG |  | 0.058 | -0.039 | 0.148 | 0.165 |
| GGTTGG |  | 0.377 | 0.371 | 0.332 | 0.418 |
| CAAGCG |  | -2.05 | -1.94 | -0.916 | -0.25 |
| TGCCAG |  | -0.046 | -0.184 | 0.008 | -0.373 |
| AATGCG |  | -0.72 | -0.369 | -0.719 | -0.554 |
| CGGGAA |  | -0.039 | 0.024 | -0.164 | -0.89 |
| ATGATT |  | 1.31 | 2.21 | 0.177 | -0.199 |
| CGAAGG |  | -0.547 | -0.504 | -0.384 | -0.775 |

| Sequence | 6-mer SELEX enrichment z-score (IMP3 KH1-4) | 6-mer SELEX enrichment z-score (IMP3 KH1-2) | 6-mer SELEX enrichment z-score (IMP3 KH3-4) | 6-mer SELEX enrichment z-score (IMP3 full-length) | 6-mer SELEX enrichment z-score (IMP3 RRM1-2) |
| --- | --- | --- | --- | --- | --- |
| CAATGT |  | -0.005 | 0.23 | 0.154 | -0.011 |
| TCATCG |  | 0.166 | -0.013 | 1.13 | 0.802 |
| TGGATA |  | 0.265 | 0.627 | -0.092 | -0.116 |
| ATCTCC |  | -0.028 | -0.472 | -0.075 | 0.196 |
| CAAGGC |  | -0.066 | -0.063 | 1.1 | 0.693 |
| CCTACC |  | -1.24 | -1.71 | -1.38 | -0.72 |
| TCATCA |  | 1.47 | 0.91 | 3.05 | 3.08 |
| TATCCT |  | -0.193 | -0.28 | -0.48 | 0.065 |
| CAGGCC |  | 0.571 | 0.162 | 1.12 | 0.212 |
| TGGTTT |  | 0.078 | 0.282 | 0.106 | 0.509 |
| GGTTAT |  | 0.113 | 0.323 | 0.098 | 0.4 |
| GTCGTT |  | -0.039 | 0.088 | 0.12 | 0.386 |
| GTCGTC |  | -0.088 | -0.015 | 0.444 | 0.425 |
| AAACTG |  | -0.275 | -0.185 | -1.46 | -1.43 |
| TACGGC |  | 1.05 | 1.53 | 1.69 | 0.156 |
| TTCAAT |  | 1.18 | 1.11 | 1.03 | 1.14 |
| ATCTGG |  | -0.176 | -0.145 | 0.256 | 0.348 |
| CATCTG |  | 0.101 | -0.231 | 0.932 | 0.55 |
| ACAGTT |  | 0.56 | 0.343 | 0.614 | 0.418 |
| CGGAAG |  | -0.26 | -0.309 | -0.206 | -0.703 |
| GGAGGC |  | 0.844 | 0.66 | 0.858 | -0.031 |

| Sequence | 6-mer SELEX enrichment z-score (IMP3 KH1-4) | 6-mer SELEX enrichment z-score (IMP3 KH1-2) | 6-mer SELEX enrichment z-score (IMP3 KH3-4) | 6-mer SELEX enrichment z-score (IMP3 full-length) | 6-mer SELEX enrichment z-score (IMP3 RRM1-2) |
| --- | --- | --- | --- | --- | --- |
| GTTTAC |  | -0.13 | -0.049 | -0.159 | 0.158 |
| TTCCAT |  | 1.19 | 0.805 | 0.52 | 0.676 |
| GATACG |  | 0.09 | 0.257 | -0.122 | -0.616 |
| ACCTTC |  | -0.185 | -0.769 | -0.552 | 0.07 |
| TCAACC |  | -0.6 | -1.19 | -0.238 | 0.804 |
| CAGAAA |  | 0.103 | 0.239 | -0.362 | -0.597 |
| AGGTTC |  | 0.012 | 0.148 | 0.153 | 0.283 |
| GCAGTA |  | 0.115 | 0.166 | 0.424 | 0.157 |
| CTGTGA |  | -0.135 | -0.092 | -0.476 | -0.531 |
| GAAGCG |  | -1.53 | -1.23 | -0.974 | -0.78 |
| TGGAAT |  | 0.192 | 0.549 | -0.243 | -0.28 |
| CTCAAC |  | -0.793 | -1.28 | -0.24 | 0.476 |
| GTACTT |  | -0.432 | -0.344 | -0.253 | 0.173 |
| GTGCCA |  | -0.423 | -0.545 | 0.066 | -0.161 |
| AGCGGA |  | -0.982 | -0.731 | -0.358 | -0.538 |
| CCTTAC |  | -0.162 | -0.514 | -0.617 | -0.129 |
| TATTGA |  | 0.382 | 1 | -0.228 | -0.202 |
| GCTTAG |  | -0.334 | -0.154 | -0.236 | 0.224 |
| TGCCCT |  | -0.866 | -1.11 | -0.882 | -0.11 |
| CAGTAG |  | -0.188 | -0.166 | 0.299 | 0.38 |
| CACTCG |  | -0.999 | -1.19 | -0.009 | 0.5 |
